According to the antibiotic and cytotoxicity screens of Wong et al. (2023):
The other results are listed elsewhere or left out.

tested on: S. aureus RN4220; assay: growth inhibition call (relative growth <= 0.2); settings: 50 µM

Growth inhibition call, inactive:
C[C@@H]1CN([C@@H](C)CO)C(=O)c2cccc(NS(=O)(=O)c3cccs3)c2O[C@@H]1CN(C)S(=O)(=O)c1ccccc1
COCCNC(=O)C[C@@H]1C[C@H]2c3cc(NC(=O)CN(C)C)ccc3O[C@H]2[C@@H](CO)O1
COCC(=O)N(C)C[C@H]1Oc2cc(-c3ccc(C#N)cc3)ccc2S(=O)(=O)N([C@H](C)CO)C[C@H]1C
Cc1ccc(S(N)(=O)=O)cc1
CO[C@@H]1CN(C)C(=O)c2cc(NC(=O)Nc3cccc(F)c3)ccc2OC[C@H](C)N(C(=O)Nc2c(C)noc2C)C[C@@H]1C
C[C@@H]1CN([C@H](C)CO)C(=O)c2cc(NS(=O)(=O)c3ccccc3)ccc2O[C@@H](C)CCCCO[C@@H]1CN(C)S(=O)(=O)c1ccc(Cl)cc1
C[C@@H]1CN([C@@H](C)CO)C(=O)c2cc(NC(=O)Cn3cnnn3)ccc2O[C@H]1CN(C)Cc1ccccc1
COc1ccc(S(=O)(=O)N(C)C[C@@H]2Oc3cc(C4=CCCC4)ccc3S(=O)(=O)N([C@@H](C)CO)C[C@H]2C)cc1
CC(C)NC(=O)N(C)C[C@H]1OCCCC[C@@H](C)Oc2ccc(NS(C)(=O)=O)cc2C(=O)N([C@@H](C)CO)C[C@H]1C
Cn1cnc(S(=O)(=O)N[C@H]2C=C[C@@H](CC(=O)NCC3CC3)O[C@H]2CO)c1
COc1ccc2c3c([nH]c2c1)[C@H](CO)N(C[C@]13CN(C1)S(=O)(=O)C)C(=O)C1CC1
C[C@@H]1CN([C@@H](C)CO)C(=O)c2cc(NS(=O)(=O)c3cccs3)ccc2O[C@@H](C)CCCCO[C@@H]1CN(C)C(=O)CCC(F)(F)F
CON=C(C(=O)NC1C(=O)N2C(C(=O)OC(C)OC(C)=O)=C(COC(N)=O)CSC12)c1ccco1 (centres undefined)
Cc1noc(C)c1S(=O)(=O)Nc1ccc2c(c1)C(=O)N([C@@H](C)CO)C[C@@H](C)[C@@H](CN(C)S(=O)(=O)c1cn(C)cn1)O2
Cc1noc(C)c1S(=O)(=O)Nc1cccc2c1O[C@@H](CN(C)S(=O)(=O)c1ccc(Cl)cc1)[C@@H](C)CN([C@@H](C)CO)C2=O
C[C@H]1CCCCO[C@H](CN(C)S(=O)(=O)c2cccs2)[C@@H](C)CN([C@@H](C)CO)C(=O)c2cc(NC(=O)Nc3ccc(F)cc3)ccc2O1
COCC(=O)Nc1ccc2c(c1)C(=O)N(C)C[C@@H](OC)[C@H](C)CN(Cc1ccccc1OC)[C@@H](C)CO2
C[C@@H]1CN([C@H](C)CO)C(=O)c2cc(NS(=O)(=O)c3cn(C)cn3)ccc2O[C@@H]1CN(C)S(=O)(=O)c1ccc(F)cc1
Cc1noc(C)c1NC(=O)Nc1ccc2c(c1)C(=O)N([C@@H](C)CO)C[C@H](C)[C@@H](CN(C)C(=O)Nc1ccc3c(c1)OCO3)OCCCC[C@H](C)O2
Cc1noc(C)c1NC(=O)N(C)C[C@H]1Oc2ccc(NC(=O)Cn3cnnn3)cc2C(=O)N([C@H](C)CO)C[C@H]1C
COc1ccc(CN(C)C[C@H]2Oc3ccc(NS(=O)(=O)c4c(C)noc4C)cc3CC(=O)N([C@@H](C)CO)C[C@H]2C)cc1
Cc1ccc(S(=O)(=O)N2C[C@@H](O)COC[C@H]3O[C@@H](CC(=O)N[C@@H]4CCN(Cc5ccccc5)C4)CC[C@@H]32)cc1
C[C@@H]1CN([C@H](C)CO)S(=O)(=O)c2ccc(C#CCC3CCCC3)cc2O[C@@H]1CN(C)C(=O)CN(C)C
CCCN1C[C@@H](C)[C@@H](OC)CN(C)C(=O)c2ccc(NS(=O)(=O)c3cn(C)cn3)cc2OC[C@H]1C
CC/C=C\C/C=C\C/C=C\C/C=C\C/C=C\CCCC(=O)O
C[C@H]1CN([C@@H](C)CO)C(=O)Cc2cc(NC(=O)c3ccncc3)ccc2O[C@@H]1CN(C)S(=O)(=O)c1cccs1
N#Cc1c(Oc2ccc(F)c(NC(=O)Cc3cccc(C(F)(F)F)c3)c2)ccc2nc(NC(=O)C3CC3)sc12
C[C@@H]1CN([C@@H](C)CO)C(=O)c2cc(NC(=O)Nc3ccc(C(F)(F)F)cc3)ccc2O[C@@H]1CN(C)Cc1ccc(C(=O)O)cc1
C[C@@H]1CN([C@@H](C)CO)C(=O)c2cc(NC(=O)CCC(F)(F)F)ccc2O[C@@H](C)CCCCO[C@H]1CN(C)C(=O)NC1CCCCC1
